We go through 60 compounds from PubChem BioAssay AID485344 (National Center for Advancing Translational Sciences (NCATS), 2010).

Where “and” joins values, the source holds several entries; their conditions need not be identical. Equal values may be shown once. About 6,900 (2%) of roughly 340,000 compounds were called active. No stated cut-off is given here; in the data, active means inhibition above about 30%; inactive means below that, where a call was filed. Only a part is listed here, and it is no random draw. Entries without a call were filed so in the source.

In general, inhibition refers to the drop in the measured response relative to a control, in per cent.

This test concerns the target D(2) dopamine receptor (Homo sapiens) (UniProt P14416). The experiment in a line: HTS Assay for Allosteric Antagonists of the Human D2 Dopamine Receptor: Primary Screen for Antagonists. Further: 0% is about no effect. The settings on record: HEK293 TREx D2 cells, calcium flux, dopamine EC80; at 10 µM; stronger effect = higher value. An outline of the steps: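 Read-out: kinetic calcium fluorescence (1 cycle/s) in inducible HEK293 T-REx D2 cells after an EC80 dopamine addition that followed 180 s compound preincubation. Loss of the dopamine response indicates antagonism.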
Chain of UniProt P14416 (P14416 whole entry, looked up): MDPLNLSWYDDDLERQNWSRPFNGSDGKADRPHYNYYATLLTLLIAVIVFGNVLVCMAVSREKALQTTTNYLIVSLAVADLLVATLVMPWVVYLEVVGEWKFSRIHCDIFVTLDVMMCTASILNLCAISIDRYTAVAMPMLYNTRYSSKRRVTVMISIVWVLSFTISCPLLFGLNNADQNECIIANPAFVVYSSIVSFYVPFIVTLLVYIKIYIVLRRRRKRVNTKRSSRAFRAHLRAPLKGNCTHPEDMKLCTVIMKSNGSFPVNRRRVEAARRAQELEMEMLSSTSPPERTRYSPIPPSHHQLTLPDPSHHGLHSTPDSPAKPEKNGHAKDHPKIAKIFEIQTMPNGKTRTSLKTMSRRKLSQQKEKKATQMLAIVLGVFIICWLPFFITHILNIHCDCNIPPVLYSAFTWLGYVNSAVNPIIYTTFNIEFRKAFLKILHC
A general note: Calcium assays in cells follow changes in intracellular calcium, usually with a dye or a luminescent sensor.
On to `Cc1ncc(CO)c2c1Oc1nc(-c3ccccc3)nc(SCC(=O)Nc3cccc(C(F)(F)F)c3)c1C2`, for which the inhibition was -8.92%.
Under `CCn1cc(C(=O)NCc2ccccc2Cl)c(=O)c2cc(S(=O)(=O)N3CCCCC3)ccc21` stands 3.58%.
The value for `CSc1ncc(C(=O)N2CCN(c3ccc(F)cc3)CC2)c(C)n1` was -15.6%.
Under `Cc1ccc(C)c(N2CCN(C(=O)c3cc(S(=O)(=O)N4CCCC4)cn3C)CC2)c1` stands -10%.
On to `COc1ccccc1CCNC(=O)Cn1ccc2cc(S(=O)(=O)N3CCCCCC3)ccc21`, for which the inhibition was -9.5%.
As to `CCc1nnc(SCc2nc(-c3ccc(OC)cc3)oc2C)c2cc3sccc3n12`, the inhibition stood at 6.83%.
Under `COc1cccc(-c2nn(C)c3sc(C(=O)N4CCN(c5cccc(C)c5)C(C)C4)cc23)c1` (stereo not given) stands -2.97%; under `CCOC(=O)C1CCC(CN(Cc2c(Cl)cccc2Cl)S(=O)(=O)c2ccc(F)cc2)CC1` (stereo not given), 27.7%.
The value for `Cc1cccc(C(=O)Nc2nc(-c3ccc(Br)cc3)ns2)c1` was -9.02%; that for `COc1cc(C(=O)N2CCc3c([nH]c4ccccc34)C2c2ccccc2)cc(OC)c1OC` (stereo not given) was 0.635%; that for `CCOC(=O)C1CCN(C(=O)Cn2ncc3c([nH]c4ccc(C)cc43)c2=O)CC1` was -2.44%.
As for `CC(=O)N1CCC2(CC1)OC(=O)C(C)=C2C(=O)Nc1ccccc1C(F)(F)F`, the inhibition worked out at 5.17%.
Turning to `COc1ccccc1OCCn1c(-c2ccc(Br)cc2)nc2ccccc2c1=O`, the inhibition was -20.5%.
The value for `Cc1cccc(N(CC(=O)NCCSc2ccc(Cl)cc2)S(=O)(=O)c2ccccc2)c1C` was -12.3%.
The value for `Cc1ccc2c(c1)N(C(=O)N1CCC(C(=O)NCc3ccco3)CC1)CC(C)O2` (stereo not given) was -1.65%.
Regarding `CCCCOC(=O)c1ccc(NC(=O)Cc2coc3ccc(C(C)C)cc23)cc1`, the inhibition came out at 14.3%.
The value for `CCc1ccc(OCC(=O)NCc2nc(-c3cccc(C)c3)no2)c(Br)c1` was 17%; that for `COc1ccc(N2CCN(C(=O)c3ccc4c(c3)CCN4S(C)(=O)=O)CC2)cc1` was 6.27%; that for `CCSc1nc2c(c(=O)[nH]c(=O)n2C)n1CC(O)COc1ccc(Cl)cc1` (stereo not given) was 12.3%.
The value for `COC(=O)CNS(=O)(=O)c1ccc(Cc2ccc(S(=O)(=O)NCC(=O)OC)cc2)cc1` was active: 41.3%; that for `Cc1nc(SCC(=O)Nc2ccc(Br)cc2)[nH]c(=O)c1Cc1ccccc1` was -12%.
Under `Cc1ccc(C)c(S(=O)(=O)c2nnn3c2nc(Nc2ccc(F)c(Cl)c2)c2sccc23)c1` stands 8.52%; under `Cc1c(Cl)cccc1NC(=O)Cn1nc(C)c2sc3ccccc3c2c1=O`, 21.9%; under `COc1ccccc1NC(=O)c1c(NC(=O)c2ccccc2F)sc2c1CCC2`, -8.44%.
As to `COC(=O)c1c(NC(=O)c2ccccc2C(=O)O)sc2c1CCCC2`, the inhibition was -15.9%.
Under `COc1ccc(Cn2ccc3nc(C)c(C(=O)Nc4ccc(C)c(F)c4)cc3c2=O)cc1` stands -0.224%.
Consider `Cc1cc(N2CCC(C)CC2)nc2ccc(NC(=O)/C=C/c3cccc(Cl)c3)cc12`, for which the inhibition is 9.73%.
The value for `CCOc1ccc(-c2c(C)nn3c(C)c(C(=O)NCc4ccc(C)o4)cnc23)cc1OCC` was -2.94%; that for `CC(C)c1ccc(Nc2c(-c3ccccc3O)nc3cnccn23)cc1` was -14.8%.
For the compound `c1ccc(CCNCCOc2ccccc2)cc1`, the inhibition was active: 48.1%.
As to `CSc1ccc(CNC(=O)c2cc3c(=O)n(Cc4ccco4)ccc3nc2C)cc1`, the inhibition was -5.5%.
Under `CCc1ccccc1NC(=O)CSc1nnc(CC)c(CC)n1` stands 1.38%.
Under `CC(=O)N1CCc2c(sc3c2c(=O)n(-c2ccc(C)cc2)c(=O)n3CC(=O)Nc2ccccc2)C1` stands -24.3%.
Under `O=C(NCCc1ccc(Cl)cc1)c1ccc(CS(=O)(=O)Cc2ccccc2F)o1` stands 9.33%; under `Cn1c(Oc2ccc(F)cc2)nc2c1c(=O)n(Cc1ccccc1Cl)c(=O)n2C`, -4.6%; under `CCCn1c(SCC(=O)c2ccc3c(c2)OCCO3)nc2c1c(=O)n(C)c(=O)n2C`, active: 30.9%.
In the case of `CS(=O)(=O)N1CCc2cc(C(=O)N3CCN(c4ccc(F)cc4)CC3)ccc21`, the inhibition turned out to be 1.47%.
On to `Cc1ccc(-n2c(SCC(=O)Nc3cccc(Cl)c3)nc3n[nH]c(C)c3c2=N)cc1`, for which the inhibition came out at 6.85%.
Turning to `Cc1ccc(N2CC(NC(=O)c3ccc4c(c3)OCO4)CC2=O)cc1` (stereo not given), the inhibition is -1.78%.
As to `CC(=O)N1CCCc2ccc(NS(=O)(=O)c3ccc(F)cc3F)cc21`, the inhibition was 3.59%.
The value for `Cc1ccccc1NC(=O)Cn1nc(-c2ccc(F)cc2)c2cnc3ccccc3c21` was -6.65%; that for `CN(C)CCN1C(=O)C(=O)/C(=C(/O)c2ccc(OCc3ccccc3)cc2)C1c1ccncc1` (stereo not given) was active: 42%.
In the case of `COc1ccc(N2CCN(C(=O)c3nc(-c4ccc(Cl)cc4)n4c3CCCCC4)CC2)cc1`, the inhibition turned out to be 7.49%.
As for `Cc1ccc(Cl)cc1N1CCN(CCNC(=O)Nc2ccc(Cl)cc2)CC1`, the inhibition came to 26.5%.
Turning to `COc1ccc(NC(=O)c2nnn(Cc3ccc(Br)cc3F)c2N)c(OC)c1`, the inhibition is -6.17%.
Under `CC(C)c1cccc(C(C)C)c1NC(=O)c1ccccc1` stands active: 42.8%; under `O=C(C1CCN(S(=O)(=O)c2cccc3nonc23)CC1)N1CCN(c2ccccc2)CC1`, 6.53%.
Under `CCOc1ccc(CNC(=O)c2ccc(CS(=O)c3ccccc3)o2)cc1` (stereo not given) stands 14.1%; under `CN1CCN(CCCN2c3ccccc3Sc3ccc(C(F)(F)F)cc32)CC1`, active: 84.8% and active: 79.1%; under `Cc1cc(NC(=O)CSc2nc(-c3ccccc3F)nc3c2c(=O)n(C)c(=O)n3C)no1`, 12.6%.
For `CCCSc1nc2sc3c(c2c(=O)n1-c1ccccc1)CCC(C)C3` (stereo not given), the inhibition is -12.1%.
Under `Cc1nc(-c2nc(-c3c(C(=O)NNC(=O)Nc4cccc(Cl)c4)noc3C)cs2)cs1` stands active: 49.3%; under `COC(=O)c1cccc(NC(=O)C2CCN(S(=O)(=O)Cc3ccccc3)CC2)c1C`, 8.15%.
Under `COc1cc2nc(SCc3ccc(Cl)cc3)n3nc(CCn4nc(C)cc4C)nc3c2cc1OC` stands 1.17%; under `CC(=O)c1sc2c(c1C)c(=O)n(-c1ccc(Cl)cc1)c(=O)n2Cc1cc(=O)n2cc(Cl)ccc2n1`, 5.73%; under `Cc1nn(C(=O)c2ccc(Cl)cc2)c(C)c1Sc1ccc(Cl)cc1`, -4.98%.
Under `O=C(CSc1ncc(CO)n1Cc1ccccc1)Nc1nc2ccccc2s1` stands 10.5%.
`O=C(NC1CC(=O)N(c2ccc(F)cc2)C1)c1cccs1` (stereo not given): the inhibition is -6.85%.
On to `COc1ccc(CNC(=O)C2CCN(c3nc4ccccc4[nH]3)CC2)c(OC)c1`, for which the inhibition amounted to 4.24%.
For `COc1cc(CN(C(=O)COc2ccc(Br)cc2)c2ccccn2)cc(OC)c1OC`, the inhibition is -0.411%.
